Assay results taken from ChEMBL document CHEMBL4888484, “Replenishing the malaria drug discovery pipeline: Screening and hit evaluation of the MMV Hit Generation Library 1 (HGL1) against asexual blood stage Plasmodium falciparum ,using a nano luciferase reporter read-out” (2022).
Several values for one entry are separate records, joined by “and”; a condition that tells them apart may be missing. Equal entries are not always repeated. Screen size: about 150,000 compounds; about 540 (0.36%) showed an effect of 50% or more. The list shows a part of the results.

Test system: Plasmodium falciparum
Assay: Primary screen in NF54 nanoGlo assay, in single point, at 2uM, 72h; a lower Z score goes with more inhibition
Assay type: functional, Erythrocyte
Settings: timepoint 72 hour

SMILES | % Inhibition [%] | Z score | % Inhibition (2 µM)
COc1ccc(-c2nc3cccnc3n2[C@H]2CCN(C(=O)NCc3ccc(F)cc3)C2)cc1 | -1 | 0.12 | 
O=C1NCCOCCN(C(=O)Nc2ccc3c(c2)OCCO3)[C@@H]2CCCC[C@H]12 | -4 | 0.46 | 
Cc1c(Br)cccc1CC(CO)CNC1COC2(CCC2)C1 (configuration not stated) | -5 | 0.94 | 
OC[C@@]1(CCOc2ccccc2)CCCN(Cc2ccoc2)C1 | -10 | 0.92 | 
CCCCNc1nc2c(s1)C[C@]1(C)CC[C@@H]([C@H](C)C(=O)NCCOC)[C@H](O)[C@H]1[C@@H]2C | -5 | 0.84 | 
O=C(c1cnccn1)N1C[C@H]2CC[C@@H](C1)N(C(=O)c1ccc(Cl)s1)C2 | -4 | 0.62 | 
O=C1C2C3c4ccccc4C(c4ccccc43)[C@@H]2C(=O)N1c1cccnc1 (some centres not stated) | -5 | 0.6 | 
CC(NC(=O)c1ccc(F)c(Cl)c1)C(C)C(=O)O (configuration not stated) | 2 | -0.32 | 
C#CCNC(=O)c1ccccc1NCCCS(C)(=O)=O | -7 | 1.24 | 
Cc1nc(N)nc2[nH]c(=O)n(-c3ccccc3)c(=O)c12 | -1 | 0.09 | 
Cc1ccc2nnc(-c3ccccc3)c(C(=O)N3CCN(c4ccc(F)cc4)CC3)c2c1 | -4 | 0.54 | 
CC(=O)c1cccc(S(=O)(=O)N2CCc3nc(NC(=O)c4cnccn4)sc3C2)c1 | -8 | 1.62 | 
CS(=O)(=O)N(CC(=O)N(Cc1ccco1)C[C@H]1CCCO1)C1CC1 | 3 | -0.4 | 
Cc1nc(COc2nc(C(C)(C)C)no2)sc1C | -11 | 2.04 | 
O=C1NCCN1C(=O)N1CCC[C@H](Oc2cccnn2)C1 | -4 | 0.71 | 
CCN(CC)C(=O)c1cn([C@H]2CC[C@@H](NC(=O)c3ccc(Oc4ccccc4)o3)CC2)nn1 | 9 | -1.15 | 
CCCc1[nH]nc(-c2cccc(OC)c2)c1NC(=O)COc1ccc(Cl)cc1 | -8 | 1.18 | 
O=C(COc1cccc(Cl)c1)N[C@@H]1CCCC[C@H]1O | -11 | 1.55 | 
Cc1ccc(C[C@H](NC(=O)c2cccnc2)c2ccccn2)cc1 | -19 | 2.44 | 
O=C(Nc1ccccc1N1CCOCC1)[C@@H]1CC=CCC1 | 36 | -4.1 | 
COCCNC(=O)Nc1nnc(-c2ccsc2)o1 | -16 | 2.4 | 

SMILES | % Inhibition [%] | Z score | % Inhibition (2 µM)
Cc1ncc2c(c1CNC(=O)c1c3c(nn1C)CCCC3)CCNC2 | 5 | -0.8 | 
COCC1(NC(=O)[C@H](C)n2ccnc2C)CCCC1 | -1 | 0.14 | 
CC(C)COc1ccccc1[C@H]1CC(O)=Nc2nc(N3CCOCC3)sc21 | 31 | -3.47 | 
O=C(NCCOc1ccccc1)c1ccc2ccccc2n1 | -11 | 1.33 | 
Cc1ccc2c(c1)C1(c3ccccc3)Nc3ccc(C)cc3C1(c1ccccc1)N2 (configuration not stated) | 1 | -0.11 | 
Cc1ccc(OCC[C@H]2CCN(C(=O)C(C)C)C2)cc1 | -4 | 0.83 | 
COC[C@]1(C(=O)NCCC(=O)NCc2cccnc2)CCN(C(=O)OC(C)(C)C)C1 | -18 | 1.9 | 
Cc1cc(C)cc([C@@H](NC(=O)C(C)C)C(=O)O)c1 | -16 | 2.35 | 
COc1ccc(NC(=O)Cn2c(N3CCCCC3)nc(C)cc2=O)cc1Cl | -12 | 1.26 | 
OC(CNC(CC1CCOC1)c1ccccc1)c1cc(F)ccc1F (configuration not stated) | -2 | 0.38 | 
CC1(C(=O)N2CCCC(OCC3CC3)C2)CCC(=O)NC1 (configuration not stated) | -4 | 0.56 | 
CN(C)c1ccc(C(=O)N[C@H]2CC(C)(C)[C@@H]3C[C@@](C)(O)CC[C@]23CCC(=O)NCCN2CCOCC2)cc1 | 28 | -3.2 | 
CCc1ncc(S(=O)(=O)N[C@H]2CCCNC2=O)s1 | -8 | 1.72 | 
O=C(c1csc(N2CCN(c3ccc(F)cc3)CC2)n1)N1CCOCC1 | -3 | 0.44 | 
O=S(=O)(CC[C@H]1CCCO1)N1CCCCC1 | 2 | -0.32 | 
COc1ccc(NC(=O)N(C)CC[C@H](C)O)cc1Br | -31 | 3.68 | 
Cc1nc([C@@H]2CN(C)C(=O)N2)n(C(C)(C)C)n1 | -12 | 1.64 | 
Cc1cc(NS(=O)(=O)C[C@H](C)c2ccccc2)no1 | -6 | 0.82 | 
O=C(CNC1CCCCC1)N1c2ccccc2C=Cc2ccccc21 | -14 | 1.79 | 
Cc1ccccc1C(=O)N(Cc1ccc(Cl)cc1)[C@H]1CCS(=O)(=O)C1 | -4 | 0.35 | 
Cc1nn(CCO)c(C)c1Br | -49 | 5.73 | 

SMILES | % Inhibition [%] | Z score | % Inhibition (2 µM)
Fc1ccc([C@@]2(c3noc(-c4ccsc4)n3)CCOC2)cc1 | -9 | 1.23 | 
Cc1nnsc1C(=O)N[C@@H](C)c1cc2cc(Cl)ccc2o1 | -2 | 0.25 | 
Cc1c(C(=O)N2CCCCCCC2)cccc1N1CCNC1=O | -4 | 0.42 | 
O=S(=O)(NC[C@H]1CCCN1c1nccs1)c1cccs1 | -3 | 0.5 | 
Cc1c(-c2ccc(O)cc2)nc(N)c(C#N)c1-c1c[nH]cn1 | -10 | 1.55 | 
CN1CCC(CC(=O)N[C@H]2CC(C)(C)Cc3nc(C(C)(C)C)ncc32)CC1 | -21 | 1.86 | 
CN1CCN(Cc2ccccc2)C[C@@]12CCC(=O)N(CC1CC1)CC2 | -12 | 2.16 | 
Cn1c(CN2CCCCCC2)nnc1C1CCN(c2cccc(C#N)n2)CC1 | 8 | -0.85 | 
O=C(c1cccnc1)N(C[C@H]1CCOC1)C1CC1 | -1 | 0.19 | 
COc1ccc(CN2C(=O)[C@@H]3C(c4ccccc4Cl)=NO[C@@H]3C2=O)cc1 | -34 | 4 | 
O=C(NCc1cc[nH]n1)Nc1cccnc1 | -11 | 0.95 | 
CCc1nc(-c2ccccc2)nc(N2CCN(C(=O)c3ccc(F)cc3)CC2)c1Cc1ccc(Cl)cc1 | -4 | 0.73 | 
O=C(N1CCOCC1)N(C1CC1)[C@H]1CCc2ccccc21 | -5 | 0.72 | 
Cc1ccc(CNC(=O)C2CC2c2ccc3c(c2)OCCO3)n1C (configuration not stated) | -3 | 0.46 | 
O=C(Cc1cccc(C(=O)O)c1)NC1CCCC1Oc1ccccc1 (configuration not stated) | 4 | -0.36 | 
O=C(N[C@H]1CCS(=O)(=O)C1)c1ccc2cc[nH]c2c1 | -8 | 1.44 | 
CS(=O)(=O)NCCOc1ccccc1 | -18 | 2.39 | 
COc1ccccc1-c1cn2c(n1)CO[C@@H](CNC1CCCCC1)C2 | -14 | 1.83 | 
CNC(=O)C1C2CCC(C2)N1C(=O)c1ccccc1 (configuration not stated) | 16 | -1.91 | 
O=C(Cn1cncn1)Nc1ccc(OCc2ccccc2)cc1 | -31 | 3.61 | 
COc1cccc(-c2nc(C)c(C(=O)Nc3n[nH]c(CC(C)C)n3)s2)c1 |  |  | 82% and 77%

SMILES | % Inhibition [%] | Z score | % Inhibition (2 µM)
O=c1[nH]c2cc(-c3nc(-c4cccc(Br)c4)no3)ccc2c(=O)n1Cc1ccccc1 | 4 | -0.41 | 
COc1cc2c(cc1OC)CN(C1CC3CCC1C3)CC2 (configuration not stated) | 2 | -0.31 | 
Cc1nnc([C@@H]2CC3(CCN(C(=O)c4ccccc4)CC3)CN2C(=O)c2ccccc2)o1 | -16 | 1.99 | 
CCC1(CC)CN(C(=O)c2nccc3cccnc23)CC[S@@+]1[O-] | -9 | 0.93 | 
CCc1cc([C@H](C)NCC(=O)Nc2ccc(Cl)c(OC)c2)on1 | -6 | 1.22 | 
COc1cccc(CO[C@@H]2CN(C(=O)CCc3scnc3C)CC(=O)N(CC(C)C)C2)c1 | -16 | 1.86 | 
CCCN(CC1CC1)C(=O)[C@@H]1CN(S(=O)(=O)CC)C[C@H]1c1ccncc1 | -14 | 1.39 | 
CC1(CC(F)(F)F)CN(C(=O)c2c[nH]nc2-c2ccoc2)C1 | 7 | -0.82 | 
Cc1cnc(C(=O)NCc2cnoc2C)cn1 | -2 | 0.25 | 
COc1cc(C)c(Br)cc1NC(=O)[C@@H](C(=O)O)C(C)C | -10 | 1.31 | 
Cc1ccc(C(=O)N[C@H]2CCCS(=O)(=O)C2)cc1Cl | -1 | 0.15 | 
COc1ccccc1OC1(C(=O)O)CCN(Cc2ccncc2)CC1 | -8 | 1.04 | 
Cc1ccn2cc(C(=O)N3CCCC[C@@H]3Cn3cc(C)cn3)nc2c1 | 2 | -0.44 | 
CO[C@H]1CCCN(C(=O)c2cccc(-c3ccc4c(c3)NC(=O)C4)c2)C1 | -12 | 1.65 | 
Cc1c[nH]c([C@H](C)NC(=O)c2cnc(O)cn2)n1 | -9 | 0.9 | 
O=C(NCCc1cccc(-c2ccccc2)c1)C1(n2cnnn2)CCOCC1 | 6 | -0.84 | 
Cc1cc(F)c(S(=O)(=O)N(C)c2cccc3cccnc23)cc1C(=O)O | -10 | 1.18 | 
O=C(Nc1ccc(Cl)c(S(=O)(=O)Nc2ccc(Cl)cc2)c1)c1cnccn1 | -7 | 1.31 | 
CCc1nc(C[C@H]2CN(c3ncnc4oc(C)nc34)CCO2)no1 | -7 | 1.03 | 
O=C(NC1=NN2C(=NC(c3ccc(Cl)cc3)=C[C@H]2c2ccc(F)cc2)N1)c1ccc(Cl)cc1 | 48 | -9.04 | 
O=C(Cc1c[nH]c2ccccc12)Nc1cccc(C(=O)N2CCC(O)CC2)c1 | -13 | 1.64 | 
